Source: the CheMixHub viscosity set
Where “and” joins values, the source holds several entries; their conditions need not be identical. Identical values can stand only once. ± gives the uncertainty stated by the source. This continues a long series; more values of the same kind are listed elsewhere.

Conditions: 101 kPa

Cc1ccccc1
viscosity (293.15 K): 0.578 ± 0.031 mPa·s
viscosity (298.15 K): 0.5512 ± 0.015 mPa·s and 0.561 ± 0.007 mPa·s and 0.549 ± 0.006 mPa·s
viscosity (308.15 K): 0.488 ± 0.005 mPa·s and 0.503 ± 0.007 mPa·s
viscosity (318.15 K): 0.442 ± 0.005 mPa·s
